Test results reported in the supplement of paper PMC3334620.
Whole data set: some 33,000 sequences, median “E-score (-0.5 to 0.5)” near -0.035, cut for the highest 2% near 0.35. This is one part of the list.

target: T1, Pdr3 (UniProt P33200); assay: PBM E-score (8-mer binding enrichment) (E-score (-0.5 to 0.5)); higher = stronger / more preferred TF binding; most listed sequences are background and not binding sites; conditions: protein concentration: 200 nM; construct: GST-full length
T1 sequence: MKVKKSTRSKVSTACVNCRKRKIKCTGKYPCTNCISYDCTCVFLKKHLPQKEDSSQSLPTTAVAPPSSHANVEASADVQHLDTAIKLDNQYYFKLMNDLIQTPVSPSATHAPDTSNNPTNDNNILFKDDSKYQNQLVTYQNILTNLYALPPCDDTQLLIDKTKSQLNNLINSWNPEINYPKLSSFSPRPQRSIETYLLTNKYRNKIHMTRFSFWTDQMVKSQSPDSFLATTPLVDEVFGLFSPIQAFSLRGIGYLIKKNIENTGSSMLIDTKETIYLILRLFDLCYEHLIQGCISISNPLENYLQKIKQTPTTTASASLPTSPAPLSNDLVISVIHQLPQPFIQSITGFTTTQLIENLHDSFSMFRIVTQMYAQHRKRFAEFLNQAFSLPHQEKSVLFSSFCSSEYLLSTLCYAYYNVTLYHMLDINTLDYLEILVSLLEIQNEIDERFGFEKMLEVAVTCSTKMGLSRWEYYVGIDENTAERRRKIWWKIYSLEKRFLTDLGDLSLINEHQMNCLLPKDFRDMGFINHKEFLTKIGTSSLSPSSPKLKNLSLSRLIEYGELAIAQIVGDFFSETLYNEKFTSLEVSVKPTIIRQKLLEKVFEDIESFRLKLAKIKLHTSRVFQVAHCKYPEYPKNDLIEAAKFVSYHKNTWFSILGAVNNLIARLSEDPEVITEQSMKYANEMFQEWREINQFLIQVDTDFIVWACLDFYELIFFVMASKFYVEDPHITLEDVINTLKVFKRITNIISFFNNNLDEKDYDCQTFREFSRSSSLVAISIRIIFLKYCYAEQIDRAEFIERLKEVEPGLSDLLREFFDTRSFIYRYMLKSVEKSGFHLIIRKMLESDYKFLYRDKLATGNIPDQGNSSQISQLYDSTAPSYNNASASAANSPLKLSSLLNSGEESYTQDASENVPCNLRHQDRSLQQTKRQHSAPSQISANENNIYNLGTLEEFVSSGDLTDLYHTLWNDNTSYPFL
In short: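 Yeast transcription factors, full-length or as DNA-binding domains, were expressed with a GST tag using PURExpress in vitro transcription/translation. At about 100-200 nM they were applied to universal all-10-mer Agilent arrays, double-stranded by primer extension on fresh or once-stripped slides. Fluorescent anti-GST detected bound protein, and masliner normalised the scans. E-scores for ungapped eight-base words, pooled with reverse complements, came from the Universal PBM Analysis Suite.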

In order of rising “PBM E-score” value:
1. AACCTTCA  -0.429
2. GTCACCTA  -0.389
3. AAGGTACA  -0.274
4. ATTAGGAC  -0.269
5. CATCATGC  -0.246
6. AGACTTGC  -0.243
7. AAGTCTAC  -0.235
8. AGCATTTA  -0.229
9. AGTCAACG  -0.214
10. CCTATACA  -0.206
11. GCACCAGC  -0.204
12. AGCTAGTG  -0.198
13. CAGGCTAC  -0.195
14. CAATCATG  -0.189
15. CCTGGATA  -0.186
16. CATAGTGA  -0.186
17. GCGAGACA  -0.186
18. GACGGTTA  -0.183
19. AACCCAAT  -0.179
20. CTGGTCAC  -0.178
21. TCTTACAA  -0.178
22. TAAGTTAA  -0.176
23. ACCACCCT  -0.173
24. AGTTAATC  -0.171
25. CTGGTGAA  -0.171
26. CCCTGTAC  -0.17
27. ATGCAAAA  -0.166
28. CATAACTC  -0.165
29. ATACACAT  -0.162
30. CCTGTCTA  -0.148
31. AGAGGTGA  -0.145
32. CATATAAA  -0.142
33. GTAAGCCA  -0.14
34. ATCGCATG  -0.139
35. ACCTTTTA  -0.138
36. AAGCATAT  -0.138
37. AAAAGTCA  -0.138
38. AAAATCCT  -0.137
39. CTGGCAGC  -0.136
40. AGCCTACC  -0.135
41. GTATGCAC  -0.134
42. ACCAGCTC  -0.133
43. CAGCAGAG  -0.131
44. CAAAGAGA  -0.131
45. CTACGTAC  -0.13
46. ACAAGGTC  -0.128
47. GTACAGCA  -0.128
48. ACCCTCAG  -0.123
49. ATGGTCAA  -0.123
50. ACTTAATC  -0.12
51. GCTGGCCC  -0.119
52. TGGTGGAA  -0.117
53. CGATTAAG  -0.114
54. AGCCTAGG  -0.112
55. TCGTTGAA  -0.112
56. GGCATCAC  -0.109
57. CTTAGTAC  -0.107
58. ACAATGGC  -0.107
59. CATCCCAG  -0.106
60. CATATGAC  -0.103
61. ACGCCCTA  -0.103
62. ACGACAGC  -0.103
63. AGTGAAAC  -0.0998
64. CAGGCAAC  -0.0972
65. CCTCGTGA  -0.0949
66. ATCGGTCA  -0.0945
67. ACAAGGAT  -0.0898
68. AGGTTTTC  -0.0856
69. CACGGTGC  -0.0844
70. AATATACG  -0.0829
71. CTGTATAC  -0.0785
72. GCAGTGTA  -0.0769
73. CCTCGAAC  -0.076
74. AAGCGTCC  -0.0745
75. CACGTATG  -0.0737
76. GTCAGTCA  -0.0728
77. GAGCCACC  -0.068
78. AACAAGGT  -0.0672
79. ATAATGTG  -0.0655
80. CTAGGTAC  -0.0628
81. TACTCCCA  -0.0591
82. CATTATCG  -0.0579
83. CATGATCG  -0.0559
84. CTCTGCAC  -0.0549
85. GACGCAAC  -0.0543
86. ATCCTTTG  -0.0527
87. ATCTGACG  -0.0524
88. CGCTAAAG  -0.0518
89. AGTTCACG  -0.0469
90. CTCCCACA  -0.0457
91. ACTTGTGC  -0.0441
92. ATAGTGTC  -0.0401
93. AAGTCCAT  -0.0399
94. CGTCAACG  -0.0391
95. AATGGACA  -0.0389
96. CGCTTCGC  -0.0359
97. ACCTTAAA  -0.0358
98. CAACCCAC  -0.0357
99. GGATTTGA  -0.0356
100. CAATCATC  -0.0327
101. CGCAAGTA  -0.0323
102. GTAAACTA  -0.0316
103. AAAGCGAC  -0.0306
104. AGGAGTTG  -0.0286
105. CAATTTGG  -0.027
106. AAATCCTC  -0.0269
107. GTTAAGAA  -0.0259
108. CGTGTCGA  -0.0243
109. GTTAATCA  -0.0162
110. TCTGAAAA  -0.0152
111. CGTCCCCA  -0.0149
112. GCACCAAA  -0.0138
113. ACAGTTAA  -0.0121
114. CACCCTAG  -0.011
115. AAGATACT  -0.0106
116. CAAAGCCC  -0.00105
117. ACAGATAC  -0.00099
118. CTATGGGC  0.00103
119. CCATCGCC  0.00589
120. GCCGCTCA  0.00683
121. CGTATAAG  0.0134
122. AAGTTCAC  0.0197
123. TCGGTAAA  0.0204
124. ATAAATTC  0.0215
125. ACATCGCG  0.0219
126. CAACGAAA  0.0219
127. GGCCTTCA  0.0249
128. CATCACCG  0.025
129. GTGTTCCA  0.0333
130. ATTTCTTG  0.0338
131. CGGTGAGC  0.0346
132. GGATGCCC  0.0356
133. CGGCTAGA  0.0367
134. CATTATGC  0.0385
135. ACGTGGAC  0.0398
136. GGTATCAC  0.0398
137. ATGGAACG  0.0401
138. ATAAAAAG  0.0401
139. AATAGATT  0.041
140. ATAACTCC  0.042
141. AACCGACA  0.0424
142. CTTTACAC  0.0484
143. GTACTGAA  0.0534
144. CTGCACCC  0.0546
145. CATATACA  0.0577
146. AAAGCACT  0.0582
147. GAGTTACA  0.0629
148. GATTCGCA  0.0644
149. AGCCGTGA  0.0664
150. TGTTATAA  0.0733
151. AATACGCC  0.0735
152. AATGTGGC  0.0757
153. GCGAGCGA  0.0818
154. AAATGGAG  0.0842
155. CCACACCC  0.0858
156. CCTGCCGC  0.0865
157. GAGTACTC  0.0872
158. GAATAATA  0.0876
159. ATATTCTC  0.0887
160. GCACTTCA  0.0895
161. GCAATAAA  0.0899
162. AACCGAAC  0.0918
163. CGGCCCTA  0.0923
164. GCCCCAGA  0.0958
165. AGATATGC  0.0975
166. ACGATTGC  0.0997
167. GAAAACAC  0.112
168. GATTGTGC  0.113
169. GATCGGCC  0.116
170. ACAGGCCG  0.117
171. CACTTTTC  0.117
172. CGCAGACA  0.117
173. GCGCTGAC  0.117
174. CTATTTTC  0.118
175. ACCGAGCT  0.124
176. CCAAGTTC  0.125
177. CCTGGCGC  0.126
178. CCCATATA  0.128
179. ATATTCCA  0.128
180. GCTTGTCA  0.132
181. ACGGGGGA  0.134
182. CCGACAAA  0.138
183. AATTCGGT  0.141
184. ATGACGGC  0.141
185. ACCATGCA  0.144
186. AACACTTC  0.145
187. GGGACACA  0.154
188. CTGGCCGA  0.161
189. CGAGGAAA  0.167
190. ATCCATCC  0.171
191. CGCATATC  0.171
192. ACGGGAGG  0.171
193. ATTCACGG  0.172
194. ACGCGTCC  0.172
195. CCGAGAAG  0.183
196. CCGCTCGA  0.185
197. CCCCGCGC  0.197
198. GGGAATAA  0.199
199. ACCGGACA  0.206
200. CCGCTATC  0.211
201. ATCCAGAC  0.216
202. CAACTCCC  0.218
203. AGTTGCGG  0.222
204. CCCATCCG  0.223
205. CGTACCGC  0.224
206. CCGCACTC  0.226
207. ATCGGCAC  0.232
208. ACGACCCG  0.248
209. ACACGGGA  0.271
210. GCGGAGAA  0.29
211. ATGCCCGG  0.318
212. CGGATCTC  0.325
213. CCGCCGCG  0.342
214. CTCTCGGA  0.358
215. CGGATCCC  0.374
216. AAGCGGAA  0.387
217. GCCCGGGA  0.393
218. CGGAATCA  0.456
219. ACGGAACC  0.487
